Our source for the self-cleavage values is the RNAGym collection of RNA variant scans (doi:10.7554/elife.90254).

Read counts are not given, so values of variants with three or more changes are uncertain.

Sequences and labels used below:
B1: LINE1-mini (parent)
chain: GGCAGAGCUCAACACAGCGUGGCAAAGUGGCUGUGGCUAGACUGCC

Variants of B1 are the subject of the data set. Put plainly: self-cleavage, relative activity (ratio to wild type); higher = more cleavage; in vitro, sequencing; the parent is a self-cleaving ribozyme.
C13A G27A G36C G40U: the self-cleavage was determined as 0.27. As to C13U A39G G44C, the self-cleavage was 0.07.

Regarding C13U C18G A26G C37U, the self-cleavage was 0.04. The same measure for C13U G21A C31A U43G C45G: 0.15; for C13A G21A C31U: 0.09. C13A A14G G40A: the self-cleavage worked out at 0.09. The same measure for C13U A26C C42A U43C: 0.05; for C13A G27A G29A A39U A41C: 0.03; for C13G C37U A41U C42G U43C: 0.12. With C13A G29C G44A, the self-cleavage came to 0.49. C13G G27C C31A A41G G44U: the self-cleavage was determined as 0. As for C13A C18A G22A C31U A41U, the self-cleavage was 0.01. As for C13G G22C G36U G40C, the figure is 0.05; as for C13U C31U U34G, 0.07. Turning to C13G A39U C46G, the self-cleavage turned out to be 0.04. For the variant C13U C23A U34C, the self-cleavage turned out to be 0.05. With C13U A16C A25U G30A G33U C46U, the self-cleavage was 0.04. Turning to C13U G17A C18A C23U A25U G40A, the self-cleavage came out at 0.04.

On to C13G C18G U20A C23U A24C U28A U32A, for which the self-cleavage worked out at 0.02. Take C13G U34A G36C: the self-cleavage came out at 0.05. Consider C13G U28A G33A G36A, for which the self-cleavage is 0.02. The same measure for A12U U28A C37A U43C: 0.04; for C13G G21U A39G: 0.04; for A12U G19C G21A U38A: 0. With C13A A14C A26G U28C G29U C37A, the self-cleavage was found to be 0.11. Regarding C13A C18A G33A G40U U43C, the self-cleavage is 0.06. For the variant C13G G33C G36A C46A, the self-cleavage is 0.02. Consider C13A G21C A39G G40U, for which the self-cleavage amounted to 0.02. As for C13U C18U U28G C31G C37G, the self-cleavage came out at 0.01.

Consider C13G C31A C45G, for which the self-cleavage amounted to 0.01. C13U C31A G35C: the self-cleavage stood at 0.03. Take C13A A26G C31U G35U: the self-cleavage amounted to 0.12. As for C13A G19A U32A, the figure is 0.03; as for C13A G29U G33A, 0.06.

As to C13G A16C G40U, the self-cleavage worked out at 0.03.

In the case of A12U C23U A39G, the self-cleavage was determined as 0.02. As for C13A G21U C31U G33U C37A, the figure is 0.01; as for A12U G35A G44A, 0.06; as for C13A C31U G33C G35U, 0.02. The same measure for A12U U20C C37A A41C C45G: 0. With C13A G22U G44U, the self-cleavage is 0.17.

Regarding C13U A25U U32A, the self-cleavage turned out to be 0.18. The same measure for C13A G22C C31A C46G: 0; for A12U G30C U32G G35C C45U: 0.01; for C13A G17C C18U U20G G29A: 0.03. For A12U U32C G33C G40U, the self-cleavage is 0.05. The same measure for A12U G35U G36A U38C: 0.11. With C13U A24U U34G, the self-cleavage was 0.03. In the case of C13A C15U A16U U20C C23G, the self-cleavage came out at 0.34.

For A12U U38G C42A, the self-cleavage was 0.01. Consider C13U C18U G30U G36U G44C, for which the self-cleavage is 0.12. For C13U C15A G19U A24U A41G, the self-cleavage turned out to be 0.05. Regarding C13G G17U A25G, the self-cleavage stood at 0.02. Consider C13G A16U C37A U38A G44A, for which the self-cleavage was 0.05. As for C13A A16C C23A A39U, the self-cleavage was found to be 0.03. As for C13A G33C G35C, the self-cleavage was determined as 0.02.

For C13A A24U G33U, the self-cleavage was determined as 0.04. For the variant C13U G17U U32A A39G U43G C46G, the self-cleavage was determined as 0. As for C13A G27A G33U, the self-cleavage was 0.02. For the variant C13A A14C C15U A25U G30A, the self-cleavage was found to be 0.04.

In the case of C13U C15U U34G A39U A41C, the self-cleavage was 0.12. The same measure for C13G G29U A39G: 0.27; for C13U C15U A24C C37G G44A: 0.05.

Turning to C13A A24C G33U, the self-cleavage worked out at 0.06. Consider C13U A14U U32C, for which the self-cleavage stood at 0.04.

For A12U G17A C23A G33C G44C, the self-cleavage turned out to be 0.05.

Turning to C13A G17A C45G, the self-cleavage is 0.07.

As to A12U G27A C31A, the self-cleavage was 0.05. Regarding C13G G17C C18A G29C, the self-cleavage came to 0.03.

As for C13A A41U C45U, the self-cleavage was found to be 0.29. As for C13G A16C G33A C37G, the figure is 0.09; as for C13U G17C C23G C31G C42U, 0.03; as for C13A G35C U43G, 0.08. Turning to C13U G17C U38G, the self-cleavage stood at 0.04.

Take C13A G22U G40U: the self-cleavage was 0.13. As for C13G G35C G36A, the self-cleavage amounted to 0.03. Take C13A G27C C31U C42U: the self-cleavage was found to be 0.04. As for C13A C15U A24C C42U, the figure is 0.03; as for C13G G27C U43A G44C, 0.07. On to C13A A26C A41U, for which the self-cleavage amounted to 0.12. With C13A A14U C46A, the self-cleavage was determined as 0.04. For the variant C13A A16G A24G A25G, the self-cleavage is 0.05. Regarding C13G G40A U43C, the self-cleavage was 0.1. As for C13A C18A G29C G30A G40A, the figure is 0.07; as for C13U A14G C15A U34G, 0.03. In the case of A12U C31A G35A, the self-cleavage is 0.03. For the variant C13G U20A C31A U38A, the self-cleavage was found to be 0.02. As for C13G G19C G29A U38C G40U, the figure is 0.03; as for C13A G21U A26G, 0.17. For C13G C18A U38G A39G, the self-cleavage came out at 0.02. Take C13A G29C G36A G40U: the self-cleavage came to 0.39.

Regarding A12U U20A A39C, the self-cleavage turned out to be 0.02. For C13G C18U A26G, the self-cleavage was found to be 0.07. In the case of C13G A26U G35U, the self-cleavage is 1.25.

As for C13A A24U C31G A41C C46U, the self-cleavage is 0.11. With C13G U20C G30U C37G A41G, the self-cleavage came to 0.01. Take C13A G22C G30U: the self-cleavage was 0.03. Regarding C13G G27U C46A, the self-cleavage was 0.05. The same measure for C13A G17C U20C G27A U28A G29U G40A: 0.03; for C13U A14U U28C G30C C31U G35C C46U: 0.09. As to A12U U20G C23G G30U A39G, the self-cleavage is 0.01.

Turning to C13A G19U C31A G35U G40U, the self-cleavage was 0.08. Consider C13A U20C C45A, for which the self-cleavage was determined as 0.05. In the case of C13A U20C C45G, the self-cleavage stood at 0.06. The same measure for C13G G27U G35C: 0.49; for C13U C15U G21C G27C G30C: 0.11. Turning to C13A A25C U43G C46G, the self-cleavage was found to be 0.06. Turning to C13A U32A G33U, the self-cleavage was found to be 0.01. As for C13A U32G C37A, the figure is 0.02. As for C13G A26U U34G C46U, the figure is 0.02; as for C13A C15A G30A, 0.1. The same measure for C13A C15A A26G G30U G33U A39C: 0.08; for C13U A26G C42G: 0.05.

For the variant C13U A14C G40U, the self-cleavage worked out at 0. As to C13A G21U G36U G44U, the self-cleavage was found to be 0.2.

As for C13U G21A U28C C31A, the self-cleavage came out at 0.07. The same measure for C13G G19A G29A G33U: 0.12; for C13A G36U C42G: 0.05. Regarding C13U G17U C18U A25G U28C C31U, the self-cleavage was determined as 0.07. In the case of C13G U32A A41C, the self-cleavage was determined as 0.03. Turning to C13U A14C A24C, the self-cleavage stood at 0.09. With C13G A26U G40U, the self-cleavage came out at 0.

With C13A A14U C37A C42U, the self-cleavage was 0.05. For the variant C13A G17C U38A U43C, the self-cleavage was determined as 0.33.

Take C13A G19C A26C C45A: the self-cleavage is 0.05. Regarding C13G G22C A24C U32A U34A G36C G44A, the self-cleavage amounted to 0.01. A12U C31U A41C: the self-cleavage turned out to be 0.04. In the case of C13U A25C U28C, the self-cleavage was 0.04.

Turning to C13U A24C G29C G36U, the self-cleavage was 0.06. In the case of C13G U34A C37A, the self-cleavage worked out at 0.03. For the variant C13G G17A C18U A25G G29A, the self-cleavage was found to be 0.44.

C13A C18U C46A: the self-cleavage was 0.04. As for C13G G22A A24C U34A C45G, the self-cleavage was found to be 0. As for C13U G17U G19U, the figure is 0.08; as for C13G A26C U32A, 0.01.

In the case of A12U G17U A26C G36A, the self-cleavage came out at 0.02. Turning to C13G A39C U43A, the self-cleavage stood at 0. As to C13U C15U G40C, the self-cleavage turned out to be 0.02. C13G A26G G27C G36U C37G: the self-cleavage was 0.02.

As for A12U G27U U32G G35C, the self-cleavage came out at 0.01. For C13G U28C G40U C46U, the self-cleavage came to 0.02. The same measure for C13G U32C G35A U38C C42A: 0.02. As for C13G C15U G22C G40A G44U, the figure is 0.65; as for C13G G19A U32A, 0.03. Consider C13G A16G A39U, for which the self-cleavage turned out to be 0.03.

Consider C13A G33A G36A, for which the self-cleavage was 0.1.

C13A G27U G29A U32A U38C C42A: the self-cleavage came to 0.04.

As for C13A C15U G29C, the self-cleavage amounted to 0.07. Take C13U C15U C23U: the self-cleavage came out at 0.38. Consider C13A U38A C42A, for which the self-cleavage stood at 0.06. As for C13A C18G G36A G40U, the self-cleavage is 0.14. In the case of C13U C23U G27C, the self-cleavage came out at 0.02. With C13G G40C C45U, the self-cleavage amounted to 0.12. The same measure for C13G G22U U32G G36A: 0.26. With C13A C23U U32A, the self-cleavage turned out to be 0. As for C13G U34A G44C, the self-cleavage turned out to be 0.07. With C13A C31A U32G G33A G44U, the self-cleavage turned out to be 0.06. The same measure for C13U A25U A39G: 0.48; for C13U C18A G22A: 0.03; for C13U A16G G22A C46A: 0. Turning to C13G C31U C37G, the self-cleavage is 0.04. For C13U A16U U28A A39U, the self-cleavage amounted to 0.09.

Consider C13G A16G C18G U20C G22U C31A C42A, for which the self-cleavage is 0.01. The same measure for A12U G36A C46A: 0.01; for C13G G17A U38C A39G: 0.01; for C13A G17A G30A: 0.03. The same measure for C13G G22A U28G: 0.04.
